For this test, the system named is L1210 leukemia ip in BDF1 mice, survival T/C. Description: NCI In Vivo Anticancer Drug Screen. Data for tumor model L1210 Leukemia (intraperitoneal) in B6D2F1 (BDF1) mice. The settings on record: endpoint: mean survival time, higher = longer survival.

Inconclusive results and toxic doses are left out. For part of its entries the source gives two or more results. This is not the full list of results. An entry can have further records. Results that share an entry are repeated measurements in other runs, samples, wells, individuals or studies. Brackets tell where a record comes from. Letters hold for one entry only.

Regarding `CC(CCC(=O)O)(NC(=O)c1ccc(NCc2ccc3nc(N)nc(N)c3c2)cc1)C(=O)O` (stereo not given), the T/C (dose: 2.0 mg/kg/injection, schedule: Q01DX009 (ip), vehicle: saline) is 116 % of control and 150 % of control.

Turning to `O=c1[nH]c2ccccc2c2cc3ccccc3cc12`, the T/C (dose: 200.0 mg/kg/injection, schedule: Q01DX001 (ip), vehicle: carboxymethylcellulose (CMC)) was 88 % of control, 100 % of control, 162 % of control.

Regarding `CCC(O)(CC)C(C)C`, for the setting “dose: 200.0 mg/kg/injection, schedule: Q01DX001 (ip), vehicle: saline”, the T/C is 96 % of control and 156 % of control.

In the case of `NC(C/[N+]([O-])=N/O)C(=O)O` (stereo not given), the T/C by setting is: (dose: 800.0 mg/kg/injection, schedule: Q04DX003 (ip), vehicle: saline) 161 % of control [sample A] and 109 % of control [sample B]; (dose: 1000.0 mg/kg/injection, schedule: Q04DX003 (ip), vehicle: saline) 159 % of control [sample A] and 101 % of control [sample B].

For `O=C(Nc1ccc(C2=NCCCN2)cc1)c1ccc(NC(=O)c2ccc(C3=NCCCN3)cc2)cc1`, the T/C (dose: 10.0 mg/kg/injection, schedule: Q01DX010 (sc), vehicle: olive oil, sesame oil, peanut oil) is 124 % of control and 199 % of control.

As for `CC1(C(O)CO)OCCO1` (stereo not given), for the setting “dose: 100.0 mg/kg/injection, schedule: Q04DX002 (ip), vehicle: saline”, the T/C is 95 % of control and 156 % of control.

Take `CC1(C)CN1CC1CO1` (stereo not given): for the setting “dose: 24.0 mg/kg/injection, schedule: Q01DX Z (ip), vehicle: saline”, the T/C was 105 % of control and 150 % of control.

For the compound `Cn1nc(Br)c(=O)n(C(c2ccccc2)c2ccccc2)c1=O`, the T/C (dose: 100.0 mg/kg/injection, schedule: Q01DX001 (ip), vehicle: other) was 97 % of control, 102 % of control, 156 % of control.

Turning to `CC1CN1C(=O)Nc1cccc2c(NC(=O)N3CC3C)cccc12` (stereo not given), the T/C (dose: 42.5 mg/kg/injection, schedule: Q01DX009 (ip), vehicle: Klucel (hydroxypropylcellulose) (HPC)) is 100 % of control and 153 % of control.

The values are drawn from PubChem BioAssay AID248 (DTP/NCI, 2004).
